The record followed here is PubChem BioAssay AID1346428 (National Center for Advancing Translational Sciences (NCATS), 2018).

Among all 48,000 compounds or so, about 1,200 (2.5%) were called active. Another 2% or so got no clear call; they are omitted.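 The calls were made as follows: active = activation of at least 60% and not above a set upper limit (about 1 call in 100 departs from these limits); inconclusive = activation of 40% to 60%, or above that upper limit; inactive = activation under 40%.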 Some of the results follow.

This test deals with Probable G-protein coupled receptor 32 (Homo sapiens) (UniProt O75388). The test can be described thus: qHTS for Agonists of Human Resolvin D1 Receptor DRV1. The settings on record: CHO-K1 GPR32 beta-arrestin PathHunter luminescence, 90 min; at 76.9 µM; active compounds read high; zero percent set by DMSO-only wells. The essentials: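 Using DMSO wells as EC0, agonist-induced signal was taken as chemiluminescence from beta-Gal reconstituted upon beta-arrestin recruitment to GPR32 in CHO-K1 cells after 90 min compound treatment.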
Chain of UniProt O75388 (O75388 whole entry, looked up): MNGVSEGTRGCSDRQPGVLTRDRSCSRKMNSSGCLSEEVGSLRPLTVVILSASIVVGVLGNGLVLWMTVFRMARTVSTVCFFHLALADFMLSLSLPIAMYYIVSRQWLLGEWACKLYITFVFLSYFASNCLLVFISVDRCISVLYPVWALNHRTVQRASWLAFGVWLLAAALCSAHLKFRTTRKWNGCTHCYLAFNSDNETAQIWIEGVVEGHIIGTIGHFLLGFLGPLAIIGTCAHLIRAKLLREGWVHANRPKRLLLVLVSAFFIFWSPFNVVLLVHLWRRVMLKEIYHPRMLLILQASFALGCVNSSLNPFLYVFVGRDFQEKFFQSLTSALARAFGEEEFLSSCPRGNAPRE
In general terms: qHTS replaces the single test concentration by a dilution series.
Turning to `O=C1NC(NS(=O)(=O)c2ccccc2)(C(F)(F)F)C(=O)N1CCc1ccccc1` (stereo not drawn), the activation was inactive: 5.97%.

In the case of `CCOc1ccc(-c2cc3nc(C4CCN(C(=O)OC(C)(C)C)CC4)c(C(=O)Nc4cccc(Cl)c4C)cn3n2)cc1`, the activation was inactive: -14.5%. In the case of `CCOC(=O)c1ccc(NC(=O)c2noc3c2CCCC3)cc1` it was inactive: 11.8%; in that of `Cc1ccc2[nH]c3c(=O)n(CC(=O)N4CCN(c5ccccc5F)CC4)ncc3c2c1`, inactive: -8.63%. In the case of `CCN(c1ccccc1)c1ncnc2c1cnn2-c1ccc(OC)cc1` it was inactive: -16.8%.

On to `O=C(CCC(=O)N1CCOc2ccccc21)NCc1cccs1`, for which the activation is inactive: -5.76%. In the case of `CC(NCCC(c1ccccc1)c1ccccc1)c1ccccc1` (stereo not drawn) it was inactive: 31.3%; in that of `COc1ccc(Cn2c(CNC(=O)Cc3ccc(OC)c(OC)c3)nc3cccnc32)cc1`, inactive: -12.3%. In the case of `CC(=O)N1CCCc2cc(S(=O)(=O)N3CCCC(C(=O)Nc4ccc(F)cc4F)C3)ccc21` (stereo not drawn) it was inactive: 13.7%; in that of `Cc1cc(N2CCN(C)CC2)nc2ccc(NC(=O)Nc3ccc(F)cc3)cc12`, inactive: 30.1%; in that of `O=S(=O)(NCCc1nnc2ccc(SCc3cccc(Cl)c3)nn12)c1ccccc1`, inactive: -22.4%. In the case of `COc1ccc(-c2cc(C(F)(F)F)c(C#N)c(SCC(=O)Nc3cccc(C)c3)n2)cc1` it was inactive: -0.509%; in that of `O=C(NCC(c1ccco1)S(=O)(=O)c1ccc(Cl)cc1)c1ccc(C(F)(F)F)cc1` (stereo not drawn), inactive: -2.31%; in that of `O=C(Cn1c(=O)n(Cc2ccco2)c(=O)c2sc3ccccc3c21)Nc1ccc(F)cc1F`, inactive: 17.8%. In the case of `COc1ccc(C(=O)N(Cc2ccco2)Cc2ccccc2F)cc1Cl`, the activation was inactive: -11.5%. Then `Cc1ccc(Cn2c(SCc3ccc(C(=O)O)cc3)nc3cccnc32)cc1`, with inactive: -2.1%; and `COc1cccc(CC(=O)Nc2c(C(=O)N3CCN(c4ccccc4)CC3)oc3ccccc23)c1`, with inactive: -32.3%. Turning to `CCOc1ccc(CCNC(=O)c2ccc3nc(N4CCC(C)CC4)sc3c2)cc1OCC`, the activation was inactive: -5.23%.

As to `CCN(CCCNC(=O)CN1N=C(c2ccccc2)CCC1=O)c1cccc(C)c1`, the activation was inactive: -25.9%. In the case of `CSc1ncc(Cl)c(C(=O)Nc2c(C(=O)c3ccc(C)cc3)oc3ccccc23)n1` it was inactive: 1.92%; in that of `CCC(C)n1c(=O)c2sccc2n2c(CCCC(=O)Nc3ccc(F)cc3)nnc12` (stereo not drawn), inactive: -11.1%; in that of `COc1ccc(-c2nc(-c3ccccc3)c(-c3ccc(F)cc3)[nH]2)c(OC)c1C`, inactive: -7.39%. Regarding `Cc1ccc(Cl)cc1NC(=O)Cn1ncc2c(C)n(Cc3ccccc3F)c(C)c2c1=O`, the activation is inactive: -13.6%. Then `CC(C)(C)NC(=O)c1ccc2nc(CCc3ccccc3)oc2c1`, with inactive: -3.13%; and `CC1CN(C(=O)CCC(=O)NCc2ccccc2)c2cc(Cl)ccc2O1` (stereo not drawn), with inactive: -20.2%; and `Cc1cc(C)cc(N2C(=O)CCSC23C(=O)N(Cc2ccccc2)c2ccccc23)c1` (stereo not drawn), with inactive: -23.5%. In the case of `CCOc1ccc(CCNC(=O)c2ccc3c(c2)sc2nc(-c4ccc(F)cc4)cn23)cc1OCC` it was inactive: -12%; in that of `O=S(=O)(NCCc1csc2nc(-c3ccc(F)cc3)nn12)c1ccc(Oc2ccccc2)cc1`, inactive: 6.73%; in that of `CC(C)c1ccc(NC(=O)CCn2c(=O)c3cccn3c3ccccc32)cc1`, inactive: -11%. In the case of `COc1cccc(CNCCSc2nnnn2C)c1OCc1ccc(F)cc1` it was active: 81.1%; in that of `Cc1ccc(C(CC(=O)Nc2ccc(F)c(Cl)c2)N2Cc3ccccc3C2=O)cc1` (stereo not drawn), inactive: 8.98%; in that of `COc1cccc(NC(=O)N(Cc2c[nH]c3ccccc23)C2CCCCC2)c1`, inactive: -2.4%. `CCOC(=O)c1[nH]c(C)c(CCC(=O)Nc2ccc(Br)c(C)c2)c1C`: the activation is inactive: -15%. Then `Cc1ccc(N2CC(NC(=O)C3CC3)CC2=O)cc1C` (stereo not drawn), with inactive: -2.48%; and `CCOC(=O)c1ccn(-c2nc(-c3cccc(OC)c3)cc(C(F)(F)F)n2)n1`, with inactive: -20.8%. `Cc1nc2sccn2c(=O)c1S(=O)(=O)Nc1ccc(N2CCN(C(=O)C(C)C)CC2)cc1`: the activation was inactive: -63.8%.

Turning to `COc1cc(C(=O)Nc2nonc2-c2ccc(Cl)cc2)cc(OC)c1OC`, the activation was inactive: -5.15%. Then `Cc1ccc(NC(=O)Cn2cnc3sc(C)c(S(=O)(=O)N4CCN(c5ncccn5)CC4)c3c2=O)cc1F`, with inactive: -12.1%. Then `COC(=O)c1ccc(NC(=O)CC2C(=O)N(c3ccccc3)C(=O)N2Cc2ccco2)cc1` (stereo not drawn), with inactive: -20.9%.

Turning to `Cc1cccc(N2CCN(S(=O)(=O)c3c(C(=O)N4CCC(C)CC4)c(C)n(C)c3C)CC2)c1C`, the activation was inactive: -36.7%. Then `Cn1nnnc1SCCCNCc1cc(Cl)ccc1OCc1ccccc1F`, with inactive: 14.4%. Regarding `CCCCCc1nn2cc(-c3ccccc3)nc2s1`, the activation is inactive: -11.5%. In the case of `CCCc1cnc2c(c1SCC(=O)Nc1ccccc1F)c(=O)n(C)c(=O)n2C` it was inactive: -21.4%; in that of `Cc1cccc(CNC(=O)C2CCN(S(=O)(=O)c3ccc4c(c3)CCCN4C(=O)C3CCC3)CC2)c1`, inactive: -16%. `COc1ccc(NC(=O)CSC2=Nc3ccccc3C3=NC(CC(=O)NCc4ccc5c(c4)OCO5)C(=O)N23)cc1` (stereo not drawn): the activation was inactive: -8.47%.

As to `CCOc1ccc(C(c2c(O)cc(C)n(Cc3ccco3)c2=O)N2CCN(c3ccccc3)CC2)cc1` (stereo not drawn), the activation was inactive: -13.5%. On to `Cc1ccc(C2C=C(c3ccc(Cl)cc3)Nc3nc(NC(=O)c4ccco4)nn32)cc1` (stereo not drawn), for which the activation was active: 108%. As to `CCCC12CN3CC(CCC)(CN(C1)C3c1c(C)[nH]c(=O)[nH]c1=O)C2=O` (stereo not drawn), the activation is inactive: -10.2%. In the case of `O=C(Nc1ccc(F)cc1F)N1CCN(c2ccc(Cl)c(Cl)c2)CC1` it was inactive: 28.4%; in that of `CCc1nn(Cc2c(C)cc(C)cc2C)c(=O)c2cc3cc(C)ccc3n12`, inactive: 3.49%. Regarding `COc1cc(Nc2ncc3c(n2)CCN(Cc2cc(F)cc(F)c2)C3)cc(OC)c1`, the activation was inactive: -5.59%. In the case of `COc1ccccc1NC(=O)CSc1oc(-c2ccc(F)cc2)nc1S(=O)(=O)c1ccc(Br)cc1` it was inactive: -11.6%. In the case of `CC(C)(C)c1ccccc1NC(=O)c1cnn2c(C(F)F)cc(-c3ccccc3)nc12` it was inactive: -4.97%; in that of `CCOC(=O)c1cnc(N2CCN(c3ccc(C)cc3C)CC2)c2ccccc12`, inactive: -24%. In the case of `Cn1c(=O)c2c(SCC(=O)Nc3ccc(F)cc3F)nc(C3CCCC3)nc2n(C)c1=O` it was inactive: 5.05%. For the molecule `Cc1ccc(C)c(NC(=O)Cn2ccn(-c3ccc(F)cc3)c(=O)c2=O)c1`, the activation is inactive: -5.33%.

In the case of `CSc1cccc(NC(=O)CN2C(=O)COc3ccc(S(=O)(=O)N4CCC(C)CC4)cc32)c1`, the activation was inactive: -20.6%. Then `Nc1nc2ccc(Cl)cc2c2nc(-c3ccco3)nn12`, with inactive: 15.1%; and `Cc1cc(C)cc(Nc2cc(C)nc3nc(-c4ccco4)nn23)c1`, with inactive: 9.3%.

Turning to `OC1C(O)C(O)C(O)C(O)C1O` (stereo not drawn), the activation is inactive: -1.78%. In the case of `Cc1ccc(-c2nc3c4ccccc4n(CC(=O)N4CCN(c5ccc(F)cc5)CC4)c(=O)n3n2)cc1` it was inactive: -7.54%; in that of `Cc1ccc(CN(C(=O)c2ccccc2[N+](=O)[O-])c2ccccn2)cc1`, inactive: -7.61%; in that of `Cc1cc(N2CCC(C(=O)NCCC(C)C)CC2)n2nc(C)c(-c3ccc(Cl)cc3)c2n1`, inactive: 13.2%. On to `CCC(C)NC(=O)Cn1c(-c2cccs2)cc2cc(Cl)ccc21` (stereo not drawn), for which the activation was inactive: 0.268%. As to `CCOC(=O)c1c(NC(=O)c2cc(-c3ccc(Cl)cc3)on2)sc(C)c1C`, the activation was inactive: 37.6%. In the case of `Cc1cc(C)cc(NC(=O)Cn2c(=O)n(Cc3ccc4c(c3)OCO4)c(=O)c3oc4ccccc4c32)c1` it was inactive: -2.18%; in that of `Cc1cccc(CNC(=O)Cn2ccc3cc(S(=O)(=O)N4CCC(C)CC4)ccc32)c1`, inactive: 3.38%; in that of `O=C(Cn1c(=O)n(Cc2nc(-c3ccccc3)no2)c(=O)c2cc3c(cc21)OCO3)Nc1cccc(C(F)(F)F)c1`, inactive: -15.2%. Take `COc1ccc(-c2ccc(CCC(=O)O)n2-c2cc(Cl)ccc2O)cc1`: the activation is inactive: -13.1%.

In the case of `COc1ccccc1-c1cc(C(F)(F)F)nc(S(=O)(=O)CCCC(=O)Nc2ccc(F)cc2F)n1`, the activation is inactive: -16.9%. As for `CCOC(=O)c1c(C)[nH]c(C)c1S(=O)(=O)N(C)CC(=O)Nc1cccc(C(F)(F)F)c1`, the activation was inactive: -17.7%. Then `CCOC(=O)C1CCN(C(=O)Cn2ncc3c([nH]c4ccccc43)c2=O)CC1`, with inactive: -12%. Then `COc1cccc(C2CC(=O)Nc3c2c(=O)n(C)c2nc4ccccc4n32)c1` (stereo not drawn), with inactive: 8.06%.

With `CCC(C)N(C)C(=O)c1cc2ccccc2c(-c2ccccc2Cl)n1` (stereo not drawn), the activation was inactive: -17.1%. Then `CCOc1ccc(-c2csc(-c3c(N)c(C(=O)c4ccc5c(c4)OCO5)n4ccccc34)n2)cc1`, with inactive: -4.59%; and `CCOc1ccccc1NC(=O)c1nn(C)c2c1CSc1ccccc1-2`, with inactive: 3.13%. In the case of `COc1ccc(C)cc1NC(=O)CN1C(=O)COc2ccc(S(=O)(=O)NC3CCCC3)cc21` it was inactive: -4.88%; in that of `CN(C)CCNC(=O)c1ccc(Cn2c(=O)c3cccn3c3cccnc32)cc1`, inactive: -20.8%; in that of `Cn1nc(-c2ccc(N3CCCCC3)c(NC(=O)c3ccc(Cl)cc3)c2)c2ccccc2c1=O`, inactive: -0.487%. For `CCCc1cc(=O)[nH]c(SCc2nc(-c3ccccc3F)no2)n1`, the activation is inactive: 10.2%.

Turning to `COc1ccc(-n2c(=O)c3c4c(sc3n3c(SC(C)C)nnc23)COC(C(C)C)C4)cc1` (stereo not drawn), the activation is inactive: 0.342%. Then `Cc1ccccc1CSc1nc2c([nH]c3ccccc32)c(=O)n1C`, with inactive: -8.57%; and `CCOC(=O)c1cc(S(=O)(=O)Nc2ccccc2OCC)[nH]n1`, with inactive: -18.9%.
